# Changes are numbered by the printed parent chain. Names may count otherwise. These are yes or no findings as the source states them, for the method shown. For part of these data: In cells and extracts the contact can be indirect. Some entries that bind do so weakly or less than the wild type. For part of these data: Sequences can lack the tags named with a protein.
# Amino acid sequences for entries named in this document (tags omitted). A change or cut given only in a name is not applied to a line headed by its entry. Chains listed by the source or under a name are the forms on record and can include a tag or linker.
# UniProt Q9UDY8: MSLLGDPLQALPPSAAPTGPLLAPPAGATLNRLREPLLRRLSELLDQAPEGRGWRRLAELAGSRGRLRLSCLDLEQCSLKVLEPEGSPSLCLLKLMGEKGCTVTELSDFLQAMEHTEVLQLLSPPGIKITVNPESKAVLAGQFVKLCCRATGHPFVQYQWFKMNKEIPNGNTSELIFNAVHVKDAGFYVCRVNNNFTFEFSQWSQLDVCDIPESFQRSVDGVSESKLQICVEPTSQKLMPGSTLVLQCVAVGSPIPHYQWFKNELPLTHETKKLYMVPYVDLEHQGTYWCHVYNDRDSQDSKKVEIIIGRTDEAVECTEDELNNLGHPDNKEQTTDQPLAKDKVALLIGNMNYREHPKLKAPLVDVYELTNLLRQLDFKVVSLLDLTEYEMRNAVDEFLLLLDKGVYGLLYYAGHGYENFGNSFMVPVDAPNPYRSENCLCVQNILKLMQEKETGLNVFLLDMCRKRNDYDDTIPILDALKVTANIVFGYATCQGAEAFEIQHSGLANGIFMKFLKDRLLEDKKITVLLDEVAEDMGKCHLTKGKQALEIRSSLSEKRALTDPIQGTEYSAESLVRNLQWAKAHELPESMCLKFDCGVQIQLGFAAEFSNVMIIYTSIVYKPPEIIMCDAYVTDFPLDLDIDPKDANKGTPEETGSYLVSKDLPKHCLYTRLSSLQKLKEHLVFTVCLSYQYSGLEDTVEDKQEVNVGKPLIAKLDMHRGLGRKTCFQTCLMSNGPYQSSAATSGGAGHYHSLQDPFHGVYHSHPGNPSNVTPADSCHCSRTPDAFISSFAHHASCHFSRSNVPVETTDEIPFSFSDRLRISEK
# MALT1 isoform B V81R with C-terminal Flag-Strep-Strep tag (Q9UDY8-2, form named): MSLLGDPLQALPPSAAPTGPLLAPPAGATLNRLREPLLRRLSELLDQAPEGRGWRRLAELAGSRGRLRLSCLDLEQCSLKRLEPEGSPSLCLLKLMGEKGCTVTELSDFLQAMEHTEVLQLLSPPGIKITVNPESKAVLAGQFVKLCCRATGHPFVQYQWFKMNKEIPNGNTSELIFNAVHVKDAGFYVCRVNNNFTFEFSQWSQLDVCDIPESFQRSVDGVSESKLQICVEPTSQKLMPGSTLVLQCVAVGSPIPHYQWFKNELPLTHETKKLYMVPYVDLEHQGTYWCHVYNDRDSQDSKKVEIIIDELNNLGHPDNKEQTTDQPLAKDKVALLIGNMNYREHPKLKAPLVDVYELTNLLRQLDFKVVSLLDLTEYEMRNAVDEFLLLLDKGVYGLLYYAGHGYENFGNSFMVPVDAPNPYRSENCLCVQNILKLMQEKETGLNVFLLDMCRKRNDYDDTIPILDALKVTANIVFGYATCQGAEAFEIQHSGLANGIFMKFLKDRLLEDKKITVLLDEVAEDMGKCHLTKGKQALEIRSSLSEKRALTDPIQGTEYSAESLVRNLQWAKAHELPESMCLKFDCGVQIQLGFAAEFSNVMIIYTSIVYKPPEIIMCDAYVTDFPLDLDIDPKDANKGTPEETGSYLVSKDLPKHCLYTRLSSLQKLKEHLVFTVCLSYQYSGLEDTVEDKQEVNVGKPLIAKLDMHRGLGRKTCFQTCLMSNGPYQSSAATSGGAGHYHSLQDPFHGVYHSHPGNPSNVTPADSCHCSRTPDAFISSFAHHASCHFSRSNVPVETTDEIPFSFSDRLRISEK
# MALT1 isoform B wt with C-terminal Flag-Strep-Strep tag (Q9UDY8-2, form named): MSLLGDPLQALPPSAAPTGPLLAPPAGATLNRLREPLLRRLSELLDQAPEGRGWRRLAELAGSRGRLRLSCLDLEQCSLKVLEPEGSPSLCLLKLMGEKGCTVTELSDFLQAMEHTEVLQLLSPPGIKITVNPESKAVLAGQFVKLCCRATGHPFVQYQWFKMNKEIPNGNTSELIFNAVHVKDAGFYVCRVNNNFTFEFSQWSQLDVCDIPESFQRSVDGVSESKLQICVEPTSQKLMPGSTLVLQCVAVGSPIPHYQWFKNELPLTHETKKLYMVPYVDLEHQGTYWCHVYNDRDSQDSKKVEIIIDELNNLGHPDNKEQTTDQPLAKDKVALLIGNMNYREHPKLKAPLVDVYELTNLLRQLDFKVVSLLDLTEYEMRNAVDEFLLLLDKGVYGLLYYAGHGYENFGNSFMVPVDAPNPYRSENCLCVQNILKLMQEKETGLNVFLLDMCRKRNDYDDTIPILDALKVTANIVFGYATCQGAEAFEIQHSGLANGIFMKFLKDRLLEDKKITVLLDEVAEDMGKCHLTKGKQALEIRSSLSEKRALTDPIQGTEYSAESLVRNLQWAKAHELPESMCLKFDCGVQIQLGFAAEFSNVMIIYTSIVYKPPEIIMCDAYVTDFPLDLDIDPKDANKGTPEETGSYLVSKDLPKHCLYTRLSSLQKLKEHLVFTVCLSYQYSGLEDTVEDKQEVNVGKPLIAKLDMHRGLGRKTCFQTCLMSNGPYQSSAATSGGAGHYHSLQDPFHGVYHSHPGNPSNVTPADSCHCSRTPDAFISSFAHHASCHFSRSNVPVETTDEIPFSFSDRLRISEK
# MALT1 C77A (Q9UDY8-2, form named): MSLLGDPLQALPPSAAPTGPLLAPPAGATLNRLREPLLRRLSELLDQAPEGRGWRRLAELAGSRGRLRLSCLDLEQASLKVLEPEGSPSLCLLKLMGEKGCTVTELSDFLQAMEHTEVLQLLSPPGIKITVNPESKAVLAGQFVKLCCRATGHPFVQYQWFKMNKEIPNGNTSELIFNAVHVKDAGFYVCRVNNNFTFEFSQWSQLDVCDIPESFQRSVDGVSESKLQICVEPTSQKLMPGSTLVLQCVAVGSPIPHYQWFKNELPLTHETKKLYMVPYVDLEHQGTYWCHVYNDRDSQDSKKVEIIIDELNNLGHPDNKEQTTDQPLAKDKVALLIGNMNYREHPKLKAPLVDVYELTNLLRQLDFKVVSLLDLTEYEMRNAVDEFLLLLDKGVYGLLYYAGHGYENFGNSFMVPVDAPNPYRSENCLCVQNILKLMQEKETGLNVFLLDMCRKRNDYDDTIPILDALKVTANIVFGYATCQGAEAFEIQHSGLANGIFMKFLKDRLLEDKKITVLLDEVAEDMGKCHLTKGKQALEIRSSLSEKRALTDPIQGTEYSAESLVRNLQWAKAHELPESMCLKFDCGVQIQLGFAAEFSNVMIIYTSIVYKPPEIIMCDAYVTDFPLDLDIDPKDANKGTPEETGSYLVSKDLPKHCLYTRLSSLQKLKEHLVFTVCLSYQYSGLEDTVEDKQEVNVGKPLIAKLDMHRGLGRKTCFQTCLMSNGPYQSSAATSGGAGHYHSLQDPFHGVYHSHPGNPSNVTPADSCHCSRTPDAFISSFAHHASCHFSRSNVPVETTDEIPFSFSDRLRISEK
# MALT1 isoform B L82D with C-terminal Flag-Strep-Strep tag (Q9UDY8-2, form named): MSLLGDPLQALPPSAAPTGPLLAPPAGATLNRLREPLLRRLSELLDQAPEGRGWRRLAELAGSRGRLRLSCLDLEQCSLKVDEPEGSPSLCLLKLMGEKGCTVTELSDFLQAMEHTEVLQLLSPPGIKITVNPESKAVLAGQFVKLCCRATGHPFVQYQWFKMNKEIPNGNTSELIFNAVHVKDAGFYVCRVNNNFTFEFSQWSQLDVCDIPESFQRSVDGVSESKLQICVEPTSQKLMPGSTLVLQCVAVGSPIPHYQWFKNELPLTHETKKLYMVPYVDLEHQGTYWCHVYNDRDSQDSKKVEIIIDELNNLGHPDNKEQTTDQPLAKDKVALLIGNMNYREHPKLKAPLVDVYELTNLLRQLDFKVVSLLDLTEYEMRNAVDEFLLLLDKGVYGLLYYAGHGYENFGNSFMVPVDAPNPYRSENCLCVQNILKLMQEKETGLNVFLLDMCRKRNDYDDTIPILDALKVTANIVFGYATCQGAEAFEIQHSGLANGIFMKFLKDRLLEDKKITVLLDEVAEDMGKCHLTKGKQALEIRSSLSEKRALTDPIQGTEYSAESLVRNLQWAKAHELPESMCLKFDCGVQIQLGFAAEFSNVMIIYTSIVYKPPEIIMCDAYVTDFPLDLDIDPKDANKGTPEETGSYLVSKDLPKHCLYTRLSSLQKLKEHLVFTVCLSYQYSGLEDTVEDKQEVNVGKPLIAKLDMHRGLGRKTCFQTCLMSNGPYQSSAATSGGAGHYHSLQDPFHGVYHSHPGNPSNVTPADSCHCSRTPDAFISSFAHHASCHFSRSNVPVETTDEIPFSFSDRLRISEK
# MALT1 Q76A/E98R (Q9UDY8-2, form named): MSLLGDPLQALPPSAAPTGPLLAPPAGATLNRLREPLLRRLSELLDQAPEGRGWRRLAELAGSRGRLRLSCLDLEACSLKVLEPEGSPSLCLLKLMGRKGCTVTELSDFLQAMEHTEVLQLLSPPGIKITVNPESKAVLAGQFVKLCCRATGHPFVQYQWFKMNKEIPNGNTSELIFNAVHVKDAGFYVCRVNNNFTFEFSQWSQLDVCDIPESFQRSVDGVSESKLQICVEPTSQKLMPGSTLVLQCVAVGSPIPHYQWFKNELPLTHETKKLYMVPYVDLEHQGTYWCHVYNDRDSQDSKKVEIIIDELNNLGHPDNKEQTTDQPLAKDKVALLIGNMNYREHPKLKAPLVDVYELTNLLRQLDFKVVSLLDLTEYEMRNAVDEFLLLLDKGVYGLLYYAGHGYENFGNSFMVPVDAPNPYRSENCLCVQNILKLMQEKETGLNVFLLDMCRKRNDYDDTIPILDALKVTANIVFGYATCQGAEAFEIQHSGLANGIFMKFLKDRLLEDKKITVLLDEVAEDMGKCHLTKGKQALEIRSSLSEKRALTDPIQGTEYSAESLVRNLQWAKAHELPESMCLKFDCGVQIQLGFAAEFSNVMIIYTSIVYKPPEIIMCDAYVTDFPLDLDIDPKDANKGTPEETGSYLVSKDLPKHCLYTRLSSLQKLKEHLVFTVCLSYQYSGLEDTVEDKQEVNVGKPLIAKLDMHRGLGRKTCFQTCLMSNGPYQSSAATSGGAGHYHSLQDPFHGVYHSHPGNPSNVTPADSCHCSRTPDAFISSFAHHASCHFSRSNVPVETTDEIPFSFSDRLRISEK
# T1: BCL10, endogenous in MALT1 KO Jurkat T-cells (human (endogenous in Jurkat)) (UniProt O95999)
# T1 sequence: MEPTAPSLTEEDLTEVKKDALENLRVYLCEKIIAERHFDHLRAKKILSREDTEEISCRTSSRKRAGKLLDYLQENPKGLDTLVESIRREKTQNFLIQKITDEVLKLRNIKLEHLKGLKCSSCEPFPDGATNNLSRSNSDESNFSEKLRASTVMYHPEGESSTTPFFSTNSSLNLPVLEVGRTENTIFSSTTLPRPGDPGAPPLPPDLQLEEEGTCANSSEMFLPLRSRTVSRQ
# T2: tagged BCL10 wt (pEF vector) (human) (UniProt O95999)
# T2 sequence: T1 sequence
# T3: tagged BCL10 L104R (pEF vector) (human) (UniProt O95999)
# T3 sequence: T1 sequence with L104R
# T4: BCL10 L104R with C-terminal Flag-Strep-Strep tag (human) (UniProt O95999)
# T4 sequence: T1 sequence with L104R
# T5: BCL10 R42A with C-terminal Flag-Strep-Strep tag (human) (UniProt O95999)
# T5 sequence: T1 sequence with R42A
# T6: BCL10 wt with C-terminal Flag-Strep-Strep tag (human) (UniProt O95999)
# T6 sequence: T1 sequence
# T7: BCL10 R42E with C-terminal Flag-Strep-Strep tag (human) (UniProt O95999)
# T7 sequence: T1 sequence with R42E
# T8: BCL10 R36E with C-terminal Flag-Strep-Strep tag (human) (UniProt O95999)
# T8 sequence: T1 sequence with R36E
# T9: BCL10 R36E, GST-tag removed (human), O95999
# T9 chain: T1 sequence with R36E
# B1: human BCL10 (full length), GST-tag removed (natural protein, UniProt O95999 1-233, looked up)
# chain: T1 sequence
# notes: BCL10 (B cell lymphoma 10), human, full length; Forms helical filaments together with MALT1 (T29-G722); only residues 10-115 are modelled in the map; also called B cell lymphoma 10; BCL10 wt; not shown: GST, N-terminal, cleaved
# B2: BCL10 R36E, GST-tag removed, O95999 1-233 (protein)
# chain: T1 sequence with R36E
# B3: BCL10 R42E, GST-tag removed (protein, UniProt O95999 1-233)
# chain: T1 sequence with R42E
# B4: BCL10 R49E, GST-tag removed (protein, UniProt O95999 1-233)
# chain: T1 sequence with R49E
# How the values were obtained:
# [1] = target: T1, BCL10, endogenous in MALT1 KO Jurkat T-cells (human (endogenous in Jurkat)); assay: co-IP; anti-BCL10 (C-17) IP from lysates of reconstituted BCL10 KO or MALT1 KO Jurkat T-cells, unstimulated or P/I for 20 min; co-IP buffer 25 mM HEPES pH 7.5, 150 mM NaCl, 0.2% NP-40; Western blot
# [2] = target: T2, tagged BCL10 wt (pEF vector) (human); assay: co-IP; co-IPs of Supplementary Fig. 4d; cells and tags not given
# [3] = target: T2, tagged BCL10 wt (pEF vector) (human); assay: co-IP; HEK293 co-transfected with tagged MALT1B and BCL10 wt and mutant constructs; IP with anti-Flag antibodies, Western blot
# [4] = target: T3, tagged BCL10 L104R (pEF vector) (human); assay: as above
# [5] = target: T4, BCL10 L104R with C-terminal Flag-Strep-Strep tag (human); assay: pull-down; StrepTactin pull-down (ST-PD) of the Flag-Strep-Strep tagged BCL10 or MALT1 from lysates of reconstituted KO Jurkat T-cells, unstimulated or P/I for 20 min; Western blot
# [6] = target: T5, BCL10 R42A with C-terminal Flag-Strep-Strep tag (human); assay: as above
# [7] = target: T6, BCL10 wt with C-terminal Flag-Strep-Strep tag (human); assay: as above
# [8] = target: T7, BCL10 R42E with C-terminal Flag-Strep-Strep tag (human); assay: co-IP; anti-BCL10 (C-17) IP from lysates of reconstituted BCL10 KO or MALT1 KO Jurkat T-cells, unstimulated or P/I for 20 min; co-IP buffer 25 mM HEPES pH 7.5, 150 mM NaCl, 0.2% NP-40; Western blot
# [9] = target: T4, BCL10 L104R with C-terminal Flag-Strep-Strep tag (human); assay: as above
# [10] = target: T8, BCL10 R36E with C-terminal Flag-Strep-Strep tag (human); assay: as above
# [11] = target: T6, BCL10 wt with C-terminal Flag-Strep-Strep tag (human); assay: as above
# [12] = target: MALT1 isoform B wt with C-terminal Flag-Strep-Strep tag (human) (UniProt Q9UDY8); assay: pull-down; StrepTactin pull-down (ST-PD) of the Flag-Strep-Strep tagged BCL10 or MALT1 from lysates of reconstituted KO Jurkat T-cells, unstimulated or P/I for 20 min; Western blot
# [13] = target: MALT1 isoform B V81R with C-terminal Flag-Strep-Strep tag (human) (UniProt Q9UDY8); assay: as above
# [14] = target: T9, BCL10 R36E, GST-tag removed (human), …; assay: dynamic light scattering; BCL10-MALT1 complex fractions at 0.5 μM, filament formation started with equimolar PreScission protease (removal of GST), polymerisation followed over 100 min; both purified; conditions: remark: other sources report otherwise
# [15] = target: BCL10 R42E, GST-tag removed (human) (UniProt O95999); assay: as above
# [16] = target: BCL10 R49E, GST-tag removed (human) (UniProt O95999); assay: as above
molecule,measurement,setting,value
MALT1 isoform B V81R with C-terminal Flag-Strep-Strep tag (from UniProt Q9UDY8-2 1-813),binding,[1],no binding
MALT1 isoform B wt with C-terminal Flag-Strep-Strep tag (from UniProt Q9UDY8-2 1-813),binding,[1],binds
tagged MALT1B wt (pEF vector) (from UniProt Q9UDY8-2 1-813),binding,[2],binds
same,binding,[3],binds
same,binding,[4],no binding
MALT1 C77A (from UniProt Q9UDY8-2 1-813),binding,[2],binds
tagged MALT1B V81R (pEF vector) (from UniProt Q9UDY8-2 1-813),binding,[3],no binding
MALT1 isoform B L82D with C-terminal Flag-Strep-Strep tag (from UniProt Q9UDY8-2 1-813),binding,[1],no binding
"MALT1, endogenous in Jurkat T-cells (from UniProt Q9UDY8 1-824)",binding,[5],no binding
same,binding,[6],binds
same,binding,[7],binds
same,binding,[8],binds
same,binding,[9],no binding
same,binding,[10],binds
same,binding,[11],binds
MALT1 Q76A/E98R (from UniProt Q9UDY8-2 1-813),binding,[2],binds
B1,binding,[12],binds
same,binding,[13],no binding
B2,binding,[14],no binding (tested: 0.5 μM)
B3,binding,[15],no binding (tested: 0.5 μM)
B4,binding,[16],no binding (tested: 0.5 μM)

# Reference: paper PMC6168461, “Molecular architecture and regulation of BCL10-MALT1 filaments” (Nature Communications, 2018)
